{"source": "PubChem BioAssay AID1030", "about": "(National Center for Advancing Translational Sciences (NCATS), 2008)", "note": "Out of some 220,000 compounds screened, about 16,000 (7.3%) were called active. The shares of active, inactive and inconclusive entries below differ from those in the screen. The call rests on the fitted dose curve; in most records, active means well fitted inhibition curve with a large enough effect (not every such curve was filed as active); inconclusive means small, poorly fitted or top-dose-only effect, or another doubt; inactive means no such curve, though single readings can be large or run the other way. Potencies of inconclusive entries are left out as doubtful fits. Potency means the concentration at half of the fitted maximal effect; tags describe the fitted curve by direction and shape."}
{"molecular_target": "Aldehyde dehydrogenase 1A1 (Homo sapiens) (UniProt P00352)", "sequence (P00352 whole entry, looked up)": "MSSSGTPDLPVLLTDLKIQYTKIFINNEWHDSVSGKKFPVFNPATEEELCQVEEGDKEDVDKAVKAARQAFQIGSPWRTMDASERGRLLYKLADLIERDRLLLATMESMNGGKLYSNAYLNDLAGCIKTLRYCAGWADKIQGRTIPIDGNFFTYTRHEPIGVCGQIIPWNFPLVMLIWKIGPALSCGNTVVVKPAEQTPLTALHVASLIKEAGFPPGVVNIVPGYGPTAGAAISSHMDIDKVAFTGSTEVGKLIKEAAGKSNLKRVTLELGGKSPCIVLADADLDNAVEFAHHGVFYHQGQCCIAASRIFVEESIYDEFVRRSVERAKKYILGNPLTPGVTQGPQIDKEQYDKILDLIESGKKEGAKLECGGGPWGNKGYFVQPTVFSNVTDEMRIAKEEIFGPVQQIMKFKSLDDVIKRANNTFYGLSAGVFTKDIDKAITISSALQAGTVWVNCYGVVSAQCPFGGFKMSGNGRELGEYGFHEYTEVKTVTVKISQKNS", "test": "qHTS Assay for Inhibitors of Aldehyde Dehydrogenase 1 (ALDH1A1)", "settings": "Purified ALDH1A1, NADH fluorescence, propionaldehyde substrate; series mostly up to 75.3 µM"}
{"compound": "C/C(Cn1cnc([N+](=O)[O-])n1)=N\\NC(=O)c1ccncc1", "Potency": "inconclusive [inhibitor, partial curve]"}
{"compound": "Cc1ccc(-c2c3c(=O)n(C)c(=O)n(C)c3cn2Cc2cccnc2)cc1", "Potency": "inconclusive [inhibitor, single point]"}
{"compound": "CC1CC(C)(C)NC(=S)N1CCC(=O)NCCc1ccc(Cl)cc1", "note": "(stereo not drawn)", "Potency": "inconclusive [inhibitor, single point]"}
{"compound": "COc1cccc(NC(=O)c2cc([N+](=O)[O-])ccc2N2CCN(C)CC2)c1", "Potency": "inconclusive [inhibitor, full curve, poor fit]"}
{"compound": "CC(C)NC(=O)COC(=O)c1cc(Br)ccc1Cl", "Potency": "inactive"}
{"compound": "Cc1sc(NC(=O)c2ccco2)c(C(c2cccnc2)N2CCC(C)CC2)c1C", "note": "(stereo not drawn)", "Potency": "inactive"}
{"compound": "CCC1CC2(C)NC(=O)c3c(sc4c3CC(C)(C)OC4)N2C1=O", "note": "(stereo not drawn)", "Potency": "inconclusive [inhibitor, partial curve]"}
{"compound": "CCNC(=O)c1sc(=S)n(CC)c1N", "Potency": "inconclusive [inhibitor, single point]"}
{"compound": "O=C(CSCc1c(F)cccc1Cl)Nc1cccnc1", "Potency": "inactive"}
{"compound": "COc1ccc(N2CCN(C(=O)CC34CC5CC(CC(C5)C3)C4)CC2)c([N+](=O)[O-])c1", "Potency": "inconclusive [inhibitor, partial curve]"}
{"compound": "CCC(=O)Nc1cccc(NC(=O)CSc2nnc(-c3ccc(NS(C)(=O)=O)cc3)n2CC)c1", "Potency": "inactive"}
{"compound": "Cc1sc(NC(=O)CN(Cc2ccccc2)C(=O)C2CC2)c(C(N)=O)c1C", "Potency": "inconclusive [inhibitor, single point]"}
{"compound": "CC(C)N1C(=O)/C(=C\\c2nc3ccccc3c(=O)n2-c2ccccc2)c2ccccc21", "Potency": "inconclusive [inhibitor, single point]"}
{"compound": "CCSc1nnc2c(n1)OC1(CCCC1)Nc1ccccc1-2", "Potency": "inconclusive [inhibitor, partial curve]"}
{"compound": "COc1ccc(C2CC(c3ccccc3)=NN2c2ccc(S(N)(=O)=O)cc2)cc1", "note": "(stereo not drawn)", "Potency": "inconclusive [inhibitor, partial curve]"}
{"compound": "CCCCCCCCOc1ccc(C(=O)O)cc1", "Potency": "inactive"}
{"compound": "CCOC(=O)CN1C(=O)N[C@H](c2ccc(Br)cc2)C(C(C)=O)=C1C", "Potency": "active: 14.1 µM"}
{"compound": "Cc1ccsc1/C=N/NC(=O)c1ccc2c(c1)OCCO2", "Potency": "inconclusive [inhibitor, single point]"}
{"compound": "CCOc1ccc(NC(=O)C2CC(=O)OC2c2ccccc2)cc1", "note": "(stereo not drawn)", "Potency": "active: 25.1 µM"}
{"compound": "Nc1ccc2c(c1Cl)C(=O)c1ccc(N)c(Cl)c1C2=O", "Potency": "inconclusive [inhibitor, full curve]"}
{"compound": "CN(C)c1ccc(-c2nc(NCCN3CCOCC3)c3ccccc3n2)cc1", "Potency": "inconclusive [inhibitor, partial curve]"}
{"compound": "Cc1cc(SCC(=O)c2ccc(O)c(O)c2)nc2ccccc12", "Potency": "inactive"}
{"compound": "COc1ccccc1CNc1cc(-c2ccccc2OC)ncn1", "Potency": "inconclusive [inhibitor, single point]"}
{"compound": "COCCn1c(N)c(C(=O)OCc2ccccc2)c2nc3ccccc3nc21", "Potency": "inconclusive [inhibitor, partial curve]"}
{"compound": "O=C(CCCn1c(SCC(=O)NC2CCCCC2)nc2ccccc2c1=O)NCC1CCCO1", "note": "(stereo not drawn)", "Potency": "inconclusive [inhibitor, single point]"}
{"compound": "CCCCS(=O)CC(COC)OC(=O)c1ccccc1", "note": "(stereo not drawn)", "Potency": "inactive"}
{"compound": "NC(CC(=O)NC(c1ccccc1)(c1ccccc1)c1ccccc1)C(=O)O", "note": "(stereo not drawn)", "Potency": "inactive"}
{"compound": "Cc1ccc(-n2ncc3c(=O)n(CC(=O)N4CCCCCC4)cnc32)cc1", "Potency": "inconclusive [inhibitor, single point]"}
{"compound": "O=C(Nc1cccc(Cl)c1)c1ccc(F)c(S(=O)(=O)NCc2ccc3c(c2)OCO3)c1", "Potency": "inconclusive [inhibitor, single point]"}
{"compound": "O=C(O)c1ccc2c(c1)C(=O)N(c1ccccc1-c1ccccc1)C2=O", "Potency": "inconclusive [inhibitor, single point]"}
{"compound": "CCOc1cc(CNc2cccc3ccccc23)cc(Br)c1OCC(=O)NC(C)(C)C", "Potency": "inconclusive [inhibitor, single point]"}
{"compound": "Cc1cc(Cl)c(S(=O)(=O)N2CCCCCC2)cc1OCC(=O)NC1CCCCC1", "Potency": "inconclusive [inhibitor, partial curve]"}
{"compound": "CC(=O)N(C)c1ccc(NC(=S)Nc2ccc(C(C)C)cc2)cc1", "Potency": "inconclusive [inhibitor, partial curve]"}
{"compound": "Cn1c(=O)c2c(nc(SCC(=O)c3ccccc3F)n2C)n(C)c1=O", "Potency": "active: 17.8 µM"}
{"compound": "COc1cc(/C=N/n2c(-c3ccccc3)n[nH]c2=S)ccc1O", "Potency": "active: 25.1 µM"}
{"compound": "COc1ccc(C(=O)c2sc(Nc3ccccc3)c(C(=O)Nc3ccc(OC)c(OC)c3)c2N)cc1", "Potency": "active: 17.8 µM"}
{"compound": "COCCNc1oc(-c2ccc(F)cc2)nc1C#N", "Potency": "inconclusive [inhibitor, partial curve]"}
{"compound": "c1ccc(NCc2nc(-c3ccccc3)no2)cc1", "Potency": "inconclusive [inhibitor, single point]"}
{"compound": "O=C(Nc1ccc2c(c1)OCCO2)C(c1ccc(F)cc1)N1CCCCC1", "note": "(stereo not drawn)", "Potency": "inconclusive [inhibitor, single point]"}
{"compound": "CCOC(=O)c1cnc(-c2cccc(OC)c2)[nH]c1=O", "Potency": "inconclusive [inhibitor, single point]"}
{"compound": "CC(C)=CCc1c2c(c3occ(-c4ccc(O)cc4)c(=O)c3c1O)C=CC(C)(C)O2", "Potency": "active: 25.1 µM"}
{"compound": "COc1ccc2c(c1)CC(C)C/C2=N\\NC(=O)c1ccco1", "note": "(stereo not drawn)", "Potency": "inconclusive [inhibitor, single point]"}
{"compound": "Nc1nn(S(=O)(=O)c2ccccc2)cc1-c1cccc([N+](=O)[O-])c1", "Potency": "inconclusive [inhibitor, single point]"}
{"compound": "COc1cc(/C=N/Nc2nc3ccccc3s2)ccc1OC(=O)c1ccccc1F", "Potency": "inactive"}
{"compound": "C=CCOc1cccc(C(=O)NC(c2ccccc2)C(C)C)c1", "note": "(stereo not drawn)", "Potency": "inconclusive [inhibitor, single point]"}
{"compound": "O=C(OCc1cc(=O)n2c(n1)sc1ccccc12)c1ccc2c(=O)n3c(nc2c1)CCC3", "Potency": "inconclusive [inhibitor, partial curve]"}
{"compound": "O=C(Nc1ccc(N2CCOCC2)cc1)Nc1ccc2nc(-c3ccco3)c(-c3ccco3)nc2c1", "Potency": "inconclusive [inhibitor, single point]"}
{"compound": "Cn1nc(C(F)(F)F)c(C#N)c1N1CCN(c2cccc(C(F)(F)F)c2)CC1", "Potency": "inactive"}
{"compound": "COc1ccc(Cc2n[nH]c(=S)n(N)c2=O)cc1", "Potency": "inconclusive [inhibitor, single point]"}
{"compound": "C/C(Cl)=C\\Cn1c(N2CCCCCC2)nc2c1c(=O)n(C)c(=O)n2C", "Potency": "active: 3.55 µM"}
{"compound": "CCCc1cc(C(=O)Nc2sc3c(c2C(=O)OCC)CCCC3)no1", "Potency": "inactive"}
{"compound": "CCCn1c(-c2cccs2)nc2c1c(=O)[nH]c(=O)n2Cc1ccccc1", "Potency": "inconclusive [inhibitor, partial curve]"}
{"compound": "Cc1ccc(NC(=S)N2CCC(c3nc4ccccc4s3)CC2)cc1", "Potency": "inconclusive [inhibitor, full curve]"}
{"compound": "S=C(Nc1ccccc1)Nc1ccc(OCc2ccc(Cl)cc2Cl)cc1", "Potency": "inconclusive [inhibitor, single point]"}
{"compound": "CN1CCN(c2c(F)cc3c(=O)c(C(=O)O)cn4c3c2SCC4)CC1", "Potency": "inconclusive [inhibitor, single point]"}
{"compound": "O=C(c1cc([N+](=O)[O-])ccc1Cl)N1CCN(c2ccc([N+](=O)[O-])cc2)CC1", "Potency": "inactive"}
{"compound": "O=C1Nc2ccc(S(=O)(=O)NCc3ccccn3)c3cccc1c23", "Potency": "inconclusive [inhibitor, partial curve]"}
{"compound": "COc1ccc(-c2csc(N(CCc3ccc(OC)c(OC)c3)C(=O)COc3ccccc3)n2)cc1", "Potency": "inconclusive [inhibitor, single point]"}
{"compound": "CCOC(=O)c1cc2c(=O)n3cccc(C)c3nc2n(Cc2ccccc2Cl)c1=N", "Potency": "inconclusive [inhibitor, partial curve]"}
{"compound": "Cc1cc(C(C)(C)C)cc(S(=O)(=O)Nc2ccc(C(=O)O)cc2)c1C", "Potency": "inconclusive [inhibitor, partial curve]"}
{"compound": "CC1CCCC(C)N1C(=C(Cl)Cl)C(=C1SCCS1)[N+](=O)[O-]", "note": "(stereo not drawn)", "Potency": "inconclusive [inhibitor, partial curve]"}
{"compound": "C=CCN(CC=C)C(=S)NC(=O)c1ccc([N+](=O)[O-])cc1", "Potency": "inconclusive [inhibitor, single point]"}
{"compound": "O=C(CN1CCN(c2ccc(C(F)(F)F)cn2)CC1)NCc1ccc2c(c1)OCO2", "Potency": "inconclusive [inhibitor, single point]"}
{"compound": "c1coc(CNc2nc(-c3cccs3)cs2)c1", "Potency": "inconclusive [inhibitor, single point]"}
{"compound": "CC(C)CCn1c(N2CCC(C(N)=O)CC2)nc2c1c(=O)[nH]c(=O)n2C", "Potency": "inconclusive [inhibitor, single point]"}
{"compound": "CC(=O)Nc1ccc(NC(=O)C(=O)c2cn(CC(=O)N3CCCCC3)c3ccccc23)cc1", "Potency": "inconclusive [inhibitor, partial curve]"}
{"compound": "CCCCn1c(SCc2ccc(C(=O)OC)o2)nc2cc(S(N)(=O)=O)ccc21", "Potency": "active: 25.1 µM"}
{"compound": "COC(=O)c1c(CSc2cccc(C)c2)noc1C(=O)NCc1ccco1", "Potency": "inconclusive [inhibitor, partial curve]"}
